Experimental data published in patent publication US20220170028A1 (CUGENE, published 2022).

T1: high affinity trimeric IL-2 receptor (IL-2Rαβγ) on human CD4+ Treg cells (CD4+/Foxp3+/CD25high) of PBMC (human, UniProt P01589 22-272; P14784 27-551; P31785 23-369)
T1 sequence (looked up) 1: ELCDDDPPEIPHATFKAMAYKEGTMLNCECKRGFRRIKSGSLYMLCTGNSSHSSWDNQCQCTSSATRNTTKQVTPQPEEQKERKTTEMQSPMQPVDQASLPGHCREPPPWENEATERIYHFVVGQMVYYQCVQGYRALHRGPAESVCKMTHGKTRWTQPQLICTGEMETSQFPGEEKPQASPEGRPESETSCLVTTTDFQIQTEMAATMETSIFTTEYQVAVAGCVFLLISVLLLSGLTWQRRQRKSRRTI
T1 sequence (looked up) 2: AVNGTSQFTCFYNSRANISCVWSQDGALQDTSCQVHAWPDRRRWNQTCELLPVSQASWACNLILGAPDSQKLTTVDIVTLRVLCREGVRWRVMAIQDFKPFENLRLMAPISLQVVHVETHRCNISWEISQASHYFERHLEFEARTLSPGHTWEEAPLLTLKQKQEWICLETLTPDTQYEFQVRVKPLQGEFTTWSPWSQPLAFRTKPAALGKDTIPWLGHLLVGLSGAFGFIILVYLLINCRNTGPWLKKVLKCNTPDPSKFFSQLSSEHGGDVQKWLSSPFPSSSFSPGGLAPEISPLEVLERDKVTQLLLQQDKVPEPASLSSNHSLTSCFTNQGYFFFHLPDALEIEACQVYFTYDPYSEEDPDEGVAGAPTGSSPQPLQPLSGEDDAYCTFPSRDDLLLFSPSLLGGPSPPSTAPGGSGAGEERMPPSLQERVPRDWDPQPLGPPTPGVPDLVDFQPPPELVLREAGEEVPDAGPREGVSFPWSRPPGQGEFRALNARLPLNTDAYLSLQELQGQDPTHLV
T1 sequence (looked up) 3: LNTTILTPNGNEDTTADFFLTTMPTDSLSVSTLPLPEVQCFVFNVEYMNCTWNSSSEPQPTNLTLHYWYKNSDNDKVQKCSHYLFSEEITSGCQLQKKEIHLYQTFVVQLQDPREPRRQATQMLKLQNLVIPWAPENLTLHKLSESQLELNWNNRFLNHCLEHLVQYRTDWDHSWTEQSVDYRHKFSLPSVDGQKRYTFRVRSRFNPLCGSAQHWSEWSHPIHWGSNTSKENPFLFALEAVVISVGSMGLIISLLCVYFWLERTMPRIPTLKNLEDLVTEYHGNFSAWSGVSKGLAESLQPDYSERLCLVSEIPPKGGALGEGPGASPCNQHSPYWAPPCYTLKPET


molecular target: T1, high affinity trimeric IL-2 receptor …; assay: cell-based or functional assay

| Treg cell responsiveness (STAT5 phosphorylation EC50) [nM] | STAT5 phosphorylation in Treg cells (EC50) [nM] | fold activity impairment compared to P-0511 (STAT5 phosphorylation in Treg cells) [fold] | fold reduction in Treg cell responsiveness compared to P-0511 [fold] | Binder |
| --- | --- | --- | --- | --- |
| 0.00074 | – | – | – | P-0511 (IL-2 L19H/S125I/Q126E Fc fusion protein) (Fc fusion) [human IgG1 Fc with L234A L235A G237A (EU numbers) skipped]GGGSGGGSAPTSSSTKKTQLQLEHLLHDLQMILNGINNYKNPKLTRMLTFKFYMPKKATELKHLQCLEEELKPLEEVLNLAQSKNFHLRPRDLISNINVIVLELKGSETTFMCEYADETATIVEFLNRWITFIESIISTLT |
| – | 0.018 | 25 | – | P-0864 (P-0511 with a 9 amino acid N-terminal deletion of IL-2; Fc fusion protein) (Fc fusion) [human IgG1 Fc with L234A L235A G237A (EU numbers) skipped]GGGSGGGSTQLQLEHLLHDLQMILNGINNYKNPKLTRMLTFKFYMPKKATELKHLQCLEEELKPLEEVLNLAQSKNFHLRPRDLISNINVIVLELKGSETTFMCEYADETATIVEFLNRWITFIESIISTLT |
| 6.23 | – | – | 8500 | P-0860 (IL-2 L19D/S125I/Q126E Fc fusion protein) (Fc fusion) [human IgG1 Fc with L234A L235A G237A (EU numbers) skipped]GGGSGGGSAPTSSSTKKTQLQLEHLLDDLQMILNGINNYKNPKLTRMLTFKFYMPKKATELKHLQCLEEELKPLEEVLNLAQSKNFHLRPRDLISNINVIVLELKGSETTFMCEYADETATIVEFLNRWITFIESIISTLT |

molecular target: T1, high affinity trimeric IL-2 receptor …; assay: cell-based or functional assay; remark: another data set of the same source

| Treg EC50 (pM), STAT5 phosphorylation [pM] | Binder |
| --- | --- |
| 0.026 | P-0424 (IL-2 L19H Fc fusion protein) (Fc fusion) not shown |
| 0.012 | P-0531 (IL-2 S125I Fc fusion protein; S125I equivalent of wild-type IL-2 Fc fusion protein) (Fc fusion, also called developability-improved wild-type IL-2 fusion protein) not shown |
| 0.76 | P-0511 (IL-2 L19H/S125I/Q126E Fc fusion protein) (Fc fusion) [human IgG1 Fc with L234A L235A G237A (EU numbers) skipped]GGGSGGGSAPTSSSTKKTQLQLEHLLHDLQMILNGINNYKNPKLTRMLTFKFYMPKKATELKHLQCLEEELKPLEEVLNLAQSKNFHLRPRDLISNINVIVLELKGSETTFMCEYADETATIVEFLNRWITFIESIISTLT |
| 0.05 | P-0372 (IL-2 L19Y Fc fusion protein) (Fc fusion) not shown |
| 0.049 | P-0250 (wild type IL-2 Fc fusion protein) (Fc fusion) not shown |
| 0.08 | P-0493 (IL-2 D20E/S125I Fc fusion protein) (Fc fusion) not shown |
| 0.09 | P-0471 (IL-2 L19Y/S125I Fc fusion protein) (Fc fusion) not shown |
| 1.71 | P-0447 (IL-2 L19H/Q126E Fc fusion protein) (Fc fusion) [human IgG1 Fc with L234A L235A G237A (EU numbers) skipped]GGGSGGGSAPTSSSTKKTQLQLEHLLHDLQMILNGINNYKNPKLTRMLTFKFYMPKKATELKHLQCLEEELKPLEEVLNLAQSKNFHLRPRDLISNINVIVLELKGSETTFMCEYADETATIVEFLNRWITFSESIISTLT |
| ~0.33 | P-0495 (IL-2 L19Y/S125I/Q126E Fc fusion protein) (Fc fusion) [human IgG1 Fc with L234A L235A G237A (EU numbers) skipped]GGGSGGGSAPTSSSTKKTQLQLEHLLYDLQMILNGINNYKNPKLTRMLTFKFYMPKKATELKHLQCLEEELKPLEEVLNLAQSKNFHLRPRDLISNINVIVLELKGSETTFMCEYADETATIVEFLNRWITFIESIISTLT |
| 0.35 | P-0512 (IL-2 L19H/S125I/Q126K Fc fusion protein) (Fc fusion) [human IgG1 Fc with L234A L235A G237A (EU numbers) skipped]GGGSGGGSAPTSSSTKKTQLQLEHLLHDLQMILNGINNYKNPKLTRMLTFKFYMPKKATELKHLQCLEEELKPLEEVLNLAQSKNFHLRPRDLISNINVIVLELKGSETTFMCEYADETATIVEFLNRWITFIKSIISTLT |
| 0.24 | P-0480 (IL-2 L19H/Q126K Fc fusion protein) (Fc fusion) [human IgG1 Fc with L234A L235A G237A (EU numbers) skipped]GGGSGGGSAPTSSSTKKTQLQLEHLLHDLQMILNGINNYKNPKLTRMLTFKFYMPKKATELKHLQCLEEELKPLEEVLNLAQSKNFHLRPRDLISNINVIVLELKGSETTFMCEYADETATIVEFLNRWITFSKSIISTLT |
| 0.56 | P-0419 (IL-2 L19Y/Q126E Fc fusion protein) (Fc fusion) [human IgG1 Fc with L234A L235A G237A (EU numbers) skipped]GGGSGGGSAPTSSSTKKTQLQLEHLLYDLQMILNGINNYKNPKLTRMLTFKFYMPKKATELKHLQCLEEELKPLEEVLNLAQSKNFHLRPRDLISNINVIVLELKGSETTFMCEYADETATIVEFLNRWITFSESIISTLT |
| ~0.1 | P-0492 (IL-2 L19D/S125I Fc fusion protein) (Fc fusion) not shown |
| 3.61 | P-0364 (IL-2 D20E Fc fusion protein) (Fc fusion) not shown |
| 1 | P-0425 (IL-2 L19D Fc fusion protein) (Fc fusion) not shown |
| 0.029 | P-0491 (IL-2 L19H/S125I Fc fusion protein) (Fc fusion) not shown |
